From PubChem BioAssay AID504332 (National Center for Advancing Translational Sciences (NCATS), 2011)
About 31,000 (8.9%) of roughly 350,000 compounds were called active. The shares of active, inactive and inconclusive entries below differ from those in the screen. Calls follow the shape of the dose curve; as a rule, active = well fitted inhibition curve with a large enough effect; inconclusive = small, poorly fitted or top-dose-only effect; inactive = no such curve, though single readings can be large or run the other way. Potencies beside an inconclusive call are fits to weak or partial responses and may not hold up.
% is scaled to controls: 0 for no effect and ±100 for the full control effect; potency is read from the fitted curve at half-maximal effect; tags tell the direction and shape of the fitted curve.
Also: nearly all actives have a fitted effect of over 75% in size.

These compounds were tested against Histone-lysine N-methyltransferase EHMT2 (Homo sapiens) (UniProt Q96KQ7) (assay: qHTS Assay for Inhibitors of Histone Lysine Methyltransferase G9a). Settings: G9a H3K9 monomethylation, AlphaScreen, 2 h; activity, negative = inhibition: at 59 µM (top of the series) unless noted.
UniProt Q96KQ7, sequence (Q96KQ7 whole entry, looked up): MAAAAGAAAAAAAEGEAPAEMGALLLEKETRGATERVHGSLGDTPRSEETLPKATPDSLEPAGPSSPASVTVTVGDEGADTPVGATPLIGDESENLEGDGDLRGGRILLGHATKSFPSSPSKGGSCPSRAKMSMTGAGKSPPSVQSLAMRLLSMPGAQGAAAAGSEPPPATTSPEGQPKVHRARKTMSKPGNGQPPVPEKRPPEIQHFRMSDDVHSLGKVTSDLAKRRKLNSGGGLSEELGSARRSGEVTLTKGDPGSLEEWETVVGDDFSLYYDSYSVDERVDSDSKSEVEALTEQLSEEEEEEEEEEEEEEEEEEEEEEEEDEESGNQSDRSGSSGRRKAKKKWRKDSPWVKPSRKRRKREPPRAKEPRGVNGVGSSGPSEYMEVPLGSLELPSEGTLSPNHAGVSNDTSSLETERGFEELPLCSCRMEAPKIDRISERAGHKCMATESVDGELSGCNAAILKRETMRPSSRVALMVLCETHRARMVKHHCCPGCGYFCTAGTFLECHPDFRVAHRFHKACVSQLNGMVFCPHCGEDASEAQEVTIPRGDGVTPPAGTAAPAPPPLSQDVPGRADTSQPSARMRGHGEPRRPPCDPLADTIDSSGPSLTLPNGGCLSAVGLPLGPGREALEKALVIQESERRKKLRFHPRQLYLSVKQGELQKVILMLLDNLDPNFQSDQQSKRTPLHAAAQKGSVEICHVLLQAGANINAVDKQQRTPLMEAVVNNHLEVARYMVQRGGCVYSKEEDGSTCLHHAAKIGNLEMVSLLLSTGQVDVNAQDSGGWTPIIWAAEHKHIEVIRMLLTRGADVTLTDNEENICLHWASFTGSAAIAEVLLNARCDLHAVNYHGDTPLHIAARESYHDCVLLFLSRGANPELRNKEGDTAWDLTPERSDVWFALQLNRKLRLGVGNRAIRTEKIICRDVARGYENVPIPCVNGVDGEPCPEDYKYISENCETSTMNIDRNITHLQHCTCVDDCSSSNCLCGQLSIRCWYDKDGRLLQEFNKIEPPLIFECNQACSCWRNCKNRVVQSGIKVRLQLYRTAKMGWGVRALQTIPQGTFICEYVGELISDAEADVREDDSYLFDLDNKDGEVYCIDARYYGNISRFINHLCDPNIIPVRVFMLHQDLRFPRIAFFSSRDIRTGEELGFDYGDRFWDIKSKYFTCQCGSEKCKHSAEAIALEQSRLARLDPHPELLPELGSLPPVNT
Procedure, shortened: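 Compounds were preincubated with 20 nM G9a for 15 min, after which biotinylated H3K9 peptide (500 nM) and SAM (20 uM) started a 2 h room-temperature reaction. Monomethylated product was quantified by antibody-based AlphaScreen chemiluminescence.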
With `COc1ccc(Cl)cc1NC(=O)CN(C)C(=O)c1cn(-c2ccccc2)nc1-c1cccnc1` the Potency was inconclusive: 79.4 µM [inhibitor, partial curve, poor fit]. `O=C(COC(=O)C1C2CC3OC(=O)C1C3C2)Nc1ccc(F)cc1` (centres undefined) was tested, and the “activity, negative = inhibition” value was inactive: -5.81% [at 102 µM]. With `COc1ccc(N2CCN(/C(=N\S(=O)(=O)c3ccccc3)Nc3nc(C)cc(C)n3)CC2)cc1` the Potency was inconclusive: 2 µM [inhibitor, partial curve, poor fit]. For `CCCC(c1nnnn1Cc1ccc(OC)cc1)N1CCC(C(N)=O)CC1` (centres undefined), the Potency was active: 70.8 µM. With `CC(C)c1ccc(C2NC(=O)NC3=C2CCc2ccccc23)cc1` (centres undefined) the Potency was active: 31.6 µM. With `C=CCSC1=C(C#N)C(c2ccc(OCC)cc2)CC(=O)N1` (centres undefined) the Potency was inconclusive: 89.1 µM [inhibitor, single point]. In the case of `Cc1ccc(N/C=C/C(=O)c2sc(-c3ccccc3)nc2C)cc1`, the Potency is reported as inconclusive: 79.4 µM [inhibitor, single point]. For `CCC1(c2ccccc2)NC(=O)N(CC(=O)Nc2cc(S(=O)(=O)N3CCCCCC3)ccc2OC)C1=O` (centres undefined), the Potency was inconclusive: 11.2 µM [inhibitor, partial curve, poor fit]. In the case of `Cn1ccnc1C(O)(c1nnc(-c2ccccc2)o1)C(F)(F)F` (centres undefined), the Potency is reported as inconclusive: 3.98 µM [inhibitor, single point]. For `O=C(O)c1ccc(NC(CSCc2cccc(F)c2)C(=O)O)c([N+](=O)[O-])c1` (centres undefined), the Potency was inconclusive: 89.1 µM [inhibitor, single point]. In the case of `Cc1ccc(C(C)C)c(OCCCN2CC(C)OC(C)C2)c1` (centres undefined), the Potency is reported as inconclusive: 3.16 µM [inhibitor, partial curve, poor fit]. `O=C(O)c1cccnc1SC1CC(=O)N(c2cccc(C(F)(F)F)c2)C1=O` (centres undefined) was tested, and the Potency was active: 35.5 µM. With `COc1cccc(C(=O)Nc2nc(C)cs2)c1` the “activity, negative = inhibition” value was inactive: 0.468%. `Cn1nc(C(=O)NCc2ccccc2Cl)c2c1-c1ccccc1SC2` was tested, and the Potency was inconclusive: 25.1 µM [inhibitor, partial curve, poor fit]. `CC(C)(C)OC(=O)N1CCC(c2c(C(=O)O)cnn2-c2ccccc2)CC1` was tested, and the “activity, negative = inhibition” value was inactive: 13.1%. With `CCCOc1ccc(S(=O)(=O)Nc2ccccn2)c2ccccc12` the “activity, negative = inhibition” value was inactive: 7.79% [at 102 µM]. With `COc1ccc(Nc2cc(C(=O)NCc3ccco3)c3ccccc3n2)c(OC)c1` the Potency was inconclusive: 89.1 µM [inhibitor, single point]. For `Brc1c(Br)c(Br)c2[nH]cnc2c1Br`, the Potency was inconclusive: 0.006 µM [inhibitor, full curve]. For `COc1ccc(CN=C(Nc2ccccc2)SC2CC(=O)NC2=O)cc1` (centres undefined), the Potency was inconclusive: 39.8 µM [inhibitor, partial curve].
